From the supplement of paper PMC4166925
± gives the standard deviation of the averaged measurements. Whole data set: some 33,000 sequences, median “E-score (dimensionless, -0.5 to 0.5)” near -0.049, cut for the highest 2% near 0.37. This is one part of the list.

Tested on: T1, PmTbr T-box DNA-binding domain (GST fusion)
T1 sequence: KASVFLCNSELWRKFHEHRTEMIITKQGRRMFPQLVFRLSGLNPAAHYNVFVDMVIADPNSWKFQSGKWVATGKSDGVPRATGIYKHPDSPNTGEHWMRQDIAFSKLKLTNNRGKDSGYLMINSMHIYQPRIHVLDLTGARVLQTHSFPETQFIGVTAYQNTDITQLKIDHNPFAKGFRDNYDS
Assay: PBM E-score of 8-mer (E-score (dimensionless, -0.5 to 0.5)); Tbr is Tbrain of the sea star Patiria miniata (Pm) or the sea urchin Strongylocentrotus purpuratus (Sp); higher = stronger binding preference; most listed sequences are background and not binding sites
Details: the construct has about 5 more residues each side
In short: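 Expression of GST-fused Tbr T-box DNA-binding domains, each holding the full T-box plus roughly five flanking residues, was carried out in BL21 E. coli at 20 °C, with purification by glutathione affinity chromatography. Universal Agilent arrays made double-stranded by primer extension were incubated with the protein at 200 nM in PBS (pH 7.5), then scanned and quantified. All ungapped 8-mers were scored from probe intensities, and each received an enrichment E-score from the Universal PBM Analysis Suite, averaged over duplicate arrays.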

Sequence | PBM E-score of 8-mer
GGATAGAA | -0.216 ± 0.043
CCTGCGAG | 0.185 ± 0.021
GCTAGACA | 0.219 ± 0.01
GCCCTGCA | -0.119 ± 0.04
CGGCTGTA | -0.00709 ± 0.024
AACCGAAG | 0.144 ± 0.071
AGACGTAA | -0.2 ± 0.092
AAGATACC | -0.181 ± 0.06
CTCCTGAA | -0.211 ± 0.013
ATCCATTG | -0.235 ± 0.089
GGCATGGA | -0.162 ± 0.012
CTGAATGC | -0.17 ± 0.12
AGCGCCAG | 0.197 ± 0.0052
ACTCAGGC | -0.274 ± 0.065
CCTGTCAA | 0.309 ± 0.024
AGCACCCT | 0.309 ± 0.031
GTTATGTA | 0.0448 ± 0.081
TCCAGGGA | -0.0279 ± 0.065
CACACTCC | 0.402 ± 0.016
ACAGGGCG | 0.0776 ± 0.037
AGGAGCTG | 0.1919 ± 0.0018
AAGGGCGA | 0.0458 ± 0.039
ATCCCGTG | -0.0223 ± 0.015
AACATATC | -0.00325 ± 0.046
GCTCGGGA | -0.273 ± 0.042

Sequence | PBM E-score of 8-mer
CGGGAGAC | -0.0482 ± 0.029
GATACGTA | -0.103 ± 0.049
ATGTGTGA | 0.4845 ± 0.00059
ATCTTTCC | -0.1531 ± 0.00032
AAGTAATC | -0.203 ± 0.1
AGTGAAAG | 0.141 ± 0.041
CAAGGTCA | 0.0991 ± 0.0032
ATTCTCGC | 0.336 ± 0.016
CCATGCCA | -0.0498 ± 0.0084
ATGAACAT | -0.0253 ± 0.051
CAAACTAG | -0.0443 ± 0.031
CAGGATAG | -0.0621 ± 0.058
AGGTGCCC | 0.0662 ± 0.046
ATCTTGGC | -0.0915 ± 0.17
GAACAGTC | -0.0858 ± 0.063
AGAAAGAG | -0.128 ± 0.032
CCCGTTTC | -0.179 ± 0.071
ACCTAATC | 0.0479 ± 0.0054
AAAGATAT | -0.0962 ± 0.0051
CCAGATTC | -0.114 ± 0.033
CACGCCCG | 0.297 ± 0.048
TCGCAGCA | 0.176 ± 0.035
GAATGCCC | -0.221 ± 0.026
ATGTGGAG | -0.0959 ± 0.025
GAAACATC | -0.264 ± 0.048

Sequence | PBM E-score of 8-mer
ATTGCGCG | 0.0393 ± 0.076
ATCATTTA | -0.0119 ± 0.068
GGAAGCAA | -0.236 ± 0.11
GACACGGC | 0.187 ± 0.038
CATAAGGC | -0.0993 ± 0.083
AATACAGT | -0.247 ± 0.021
AAGTTTAA | 0.019 ± 0.088
CGAACGTC | -0.0889 ± 0.0086
AAAGGGTT | -0.228 ± 0.062
ACATACAA | -0.0412 ± 0.052
GACCTGCA | 0.0626 ± 0.036
CTCACGTA | 0.1 ± 0.032
AAACCCTG | -0.271 ± 0.044
CACTCGGG | 0.136 ± 0.014
CCCCAGCG | -0.0927 ± 0.023
TACCCCAA | -0.195 ± 0.0089
AACGAGAC | -0.103 ± 0.016
CATACAAA | -0.208 ± 0.0044
AGGTGCTG | 0.414 ± 0.019
AAAATTAG | 0.0885 ± 0.052
AGATTGCC | 0.171 ± 0.03
CGACAATA | 0.0899 ± 0.059
CATCCGTC | 0.0644 ± 0.028
TCGCATAA | 0.0968 ± 0.016
GTGATACA | 0.225 ± 0.042

Sequence | PBM E-score of 8-mer
ATTAGCCC | -0.168 ± 0.041
ATGCCTGA | -0.1085 ± 0.00094
GTCCTTCA | -0.179 ± 0.011
CTCCCAAG | -0.0536 ± 0.046
AAACTGAA | -0.132 ± 0.06
ACGACCGG | -0.111 ± 0.13
ATTATGTG | 0.144 ± 0.028
AAGGGTTC | -0.347 ± 0.0053
ACTTATTG | -0.142 ± 0.052
ATGTCGTC | -0.152 ± 0.032
ACTTCGCC | -0.00129 ± 0.099
CCTTTACA | 0.0882 ± 0.037
CCACGATA | -0.0627 ± 0.0064
CGAGTTCA | 0.167 ± 0.047
AAGGATAC | -0.163 ± 0.086
GGGCCTAA | -0.148 ± 0.024
ACCTCGTG | 0.213 ± 0.013
CTCTAATA | -0.232 ± 0.027
AACAGCCA | -0.0762 ± 0.0058
AATGACCT | -0.176 ± 0.042
ATTGGAAC | 0.0463 ± 0.024
CTCTGTTA | 0.0548 ± 0.021
CCATGGAA | -0.198 ± 0.016
GTGTGGAA | 0.353 ± 0.021
TAGTATCA | 0.0588 ± 0.082

Sequence | PBM E-score of 8-mer
AGGTGATG | 0.4179 ± 0.0014
GAAAGGAA | -0.11 ± 0.021
CTACATCA | -0.196 ± 0.047
GCACTGTA | -0.0517 ± 0.041
CTGACCAG | -0.247 ± 0.03
AGCGAGAG | 0.0436 ± 0.013
ATAGACGG | -0.276 ± 0.0086
AGTAGAGG | -0.0849 ± 0.094
TAACTGTA | -0.156 ± 0.02
AGTTACGC | -0.0446 ± 0.027
GCCACGAC | -0.0614 ± 0.052
TACAAATA | -0.123 ± 0.0095
AAAGACAT | -0.199 ± 0.028
AGCCCGCT | -0.0831 ± 0.14
CGACCATA | 0.00341 ± 0.022
ATACGTCG | -0.139 ± 0.071
GGTATTAA | 0.0101 ± 0.018
AGACTGAG | -0.0413 ± 0.013
CGGACCAC | -0.19 ± 0.016
CATTTGTA | -0.119 ± 0.1
AAAGTTAC | -0.121 ± 0.077
AGGGGCAT | -0.304 ± 0.039
CGAACTAA | -0.078 ± 0.081
CGCCTGCA | 0.142 ± 0.04
ACGGACTG | -0.095 ± 0.026

Sequence | PBM E-score of 8-mer
AAAAACCA | 0.0231 ± 0.006
GGAAATCC | -0.15 ± 0.079
GACGACGA | 0.17 ± 0.0082
CATGTGAG | 0.14 ± 0.046
GCGATAAC | 0.283 ± 0.012
CCGTATGC | -0.176 ± 0.039
AACCTAAG | -0.12 ± 0.084
GCGCGACC | 0.2651 ± 0.0023
GTCCATGA | -0.052 ± 0.031
CAGAAGGA | -0.1363 ± 0.00032
AACAGATG | -0.134 ± 0.028
CAGTTAAA | -0.159 ± 0.11
AGCCCTCG | -0.233 ± 0.059
TTCTTAAA | -0.246 ± 0.095
AAACAAAA | -0.171 ± 0.098
TACCTAGA | -0.0455 ± 0.092
CCCGCAAA | 0.00826 ± 0.029
AACTAGGG | 0.0438 ± 0.029
ACAAAAAA | 0.0209 ± 0.1
CTCGCCTA | 0.0764 ± 0.047
CACTGTCA | 0.261 ± 0.042
CAGGAAAA | 0.0531 ± 0.058
CGCGAGAA | 0.32 ± 0.0046
AGCCTCAT | -0.301 ± 0.043
ATCTCATC | -0.0393 ± 0.011

Sequence | PBM E-score of 8-mer
AAGGACTT | -0.228 ± 0.067
CATGGTTA | -0.15 ± 0.018
CGAACCCA | -0.0821 ± 0.017
AAACTCTC | -0.00208 ± 0.031
CTGTACGA | -0.254 ± 0.0088
AGTGTGAG | 0.4585 ± 0.0031
CGCCACCG | 0.126 ± 0.059
CAAATCCA | 0.0518 ± 0.015
ATTGGCGA | 0.156 ± 0.027
GTTTAGGA | -0.28 ± 0.0054
AAGGGTCT | -0.305 ± 0.043
CTTGGATA | 0.0665 ± 0.026
ACCAGTAG | -0.205 ± 0.061
AATCACCT | 0.311 ± 0.017
AGAGCGGA | -0.175 ± 0.012
AGCAGAGC | -0.213 ± 0.11
AGGACGTC | -0.149 ± 0.034
CCTCTAAA | -0.167 ± 0.0043
AGCATCTC | -0.0162 ± 0.0012
ACAATGCC | -0.11 ± 0.052
ATAAAGGG | -0.378 ± 0.031
GCCTTGCA | 0.0561 ± 0.089
